Test results from PubChem BioAssay (NCI).
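Dose response: 5 concentrations. Exposure: 48 h. Format: 96-well plates. Endpoint: linear interpolation; highest concentration if not reached. Abbreviation: GI50, concentration required for 50% inhibition of growth.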 Certain results were filed several times, with different values. They are shown here; other results are not. An entry can have further records. Values that stand side by side are repeated measurements in other runs, samples, wells, individuals or studies. What stands in brackets tells the records apart. The letters are not those of the source and start again with each entry.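 TGI: total growth inhibition.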

What was measured:
Experiment in all cases: DTP human tumour cell line panel, 48 h
SK-MEL-5 melanoma = system: SK-MEL-5 melanoma
SF-268 CNS = system: SF-268 CNS
MALME-3M melanoma = system: MALME-3M melanoma
COLO 205 colon = system: COLO 205 colon
HOP-92 NSCLC = system: HOP-92 NSCLC
OVCAR-3 ovarian = system: OVCAR-3 ovarian
BT-549 breast = system: BT-549 breast
NCI-H522 lung = system: NCI-H522 lung
SK-MEL-2 melanoma = system: SK-MEL-2 melanoma
TK-10 renal = system: TK-10 renal
OVCAR-5 ovarian = system: OVCAR-5 ovarian
A498 renal = system: A498 renal
NCI-H226 lung = system: NCI-H226 lung
IGROV1 ovarian = system: IGROV1 ovarian
OVCAR-4 ovarian = system: OVCAR-4 ovarian
UO-31 renal = system: UO-31 renal
PC-3 prostate = system: PC-3 prostate
RPMI-8226 leukemia = system: RPMI-8226 leukemia

For COc1ccc(-c2cn[nH]c2-c2cc(OC)c(OC)c(OC)c2)cc1N, the TGI (SK-MEL-5 melanoma) was 25.6 nM [sample A, 1 test] and 260 nM [sample B, mean of 2 tests], the GI50 (SF-268 CNS) was < 10 nM [sample A, 1 test] and 204 nM [sample B, mean of 2 tests] and the GI50 (MALME-3M melanoma) was 39.1 µM [sample A, 1 test] and 87.3 nM [sample B, mean of 2 tests]. For the same molecule, the TGI (COLO 205 colon) was 25 nM [sample A, 1 test] and 477 nM [sample B, mean of 2 tests], the GI50 (HOP-92 NSCLC) was < 10 nM [sample A, 1 test] and 1.73 µM [sample B, mean of 2 tests] and the TGI (OVCAR-3 ovarian) was < 10 nM [sample A, 1 test] and 5.12 µM [sample B, mean of 2 tests]. For the same molecule, the TGI (BT-549 breast) was 37.9 nM [sample A, 1 test] and > 100 µM [sample B, 1 test], the TGI (NCI-H522 lung) was < 10 nM [sample A, 1 test] and > 62.7 µM [sample B, mean of 2 tests] and the GI50 (SK-MEL-2 melanoma) was < 10 nM [sample A, 1 test] and 428 nM [sample B, mean of 2 tests]. The GI50 (TK-10 renal) was < 10 nM [sample A, 1 test] and 19.5 µM [sample B, mean of 2 tests], the GI50 (OVCAR-5 ovarian) was 7.05 µM [sample A, 1 test] and 57.8 nM [sample B, mean of 2 tests] and the TGI (A498 renal) was 1.11 µM [sample A, 1 test] and 25.8 nM [sample B, 1 test]. For the same molecule, the GI50 (NCI-H226 lung) was 19.8 µM [sample A, 1 test] and 137 nM [sample B, 1 test].

In the case of CNC(=O)c1cccc(-c2ccc3c(N4CCOC[C@@H]4C)nc(N4CCOC[C@@H]4C)nc3n2)c1, the TGI (COLO 205 colon) was > 100 µM [sample A, 1 test] and > 2.91 µM [sample B, mean of 2 tests] and 6.34 µM [sample C, mean of 2 tests], the TGI (IGROV1 ovarian) was 54.6 µM [sample A, 1 test] and 349 nM [sample B, mean of 2 tests] and 158 nM [sample C, mean of 2 tests] and the TGI (OVCAR-3 ovarian) was 1.19 µM [sample A, 1 test] and > 6.14 µM [sample B, mean of 2 tests] and 38.2 µM [sample C, mean of 2 tests]. The GI50 (OVCAR-4 ovarian) was 46.4 nM [sample A, 1 test] and 147 nM [sample B, mean of 2 tests] and 13.8 nM [sample C, 1 test], the TGI (OVCAR-4 ovarian) was 1.52 µM [sample A, 1 test] and 917 nM [sample B, mean of 2 tests] and 95.8 nM [sample C, 1 test] and the TGI (UO-31 renal) was 11.2 µM [sample A, 1 test] and 1.43 µM [sample B, mean of 2 tests] and 414 nM [sample C, mean of 2 tests]. For the same molecule, the TGI (PC-3 prostate) was 521 nM [sample A, 1 test] and > 10 µM [sample B, mean of 2 tests] and 651 nM [sample C, mean of 2 tests] and the TGI (RPMI-8226 leukemia) was 11.2 µM [sample A, 1 test] and > 3.8 µM [sample B, mean of 2 tests] and 333 nM [sample C, 1 test].
